Source: PubChem BioAssay AID493208 (National Center for Advancing Translational Sciences (NCATS), 2011)
Hit rate of the full screen: of about 44,000 compounds, about 340 (0.77%) were called active. Another 5% or so got no clear call; they are omitted. The call rests on the fitted dose curve; in most records, active means well fitted inhibition curve with a large enough effect; inconclusive means small, poorly fitted or top-dose-only effect; inactive means flat fitted curve, though single readings scatter. Some of the results follow.

assay: Acumen qHTS Assay for Inhibitors of the mTORC1 Signaling Pathway in MEF (Tsc2-/-, p53-/-) Cells: Sytravon; conditions: phospho-rpS6 immunofluorescence/PI, 24 h; series mostly up to 38.3 µM; activity change, negative = inhibition: at the top concentration;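 further: plate controls were DMSO for no effect and rapamycin for full effect; nearly all actives have a fitted effect of over 50% in size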
In short: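 Compounds act on Tsc2-/-, p53-/- fibroblasts carrying an empty vector for 24 h before fixation and dual staining for phospho-S6 and DNA (propidium iodide). Values are percentages of cells above a rapamycin-defined pS6/PI threshold.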

Activity change, negative = inhibition, inactive:
COc1cccc(CSc2nc3n(n2)C(c2cccs2)C(C(=O)Nc2ccccc2C)=C(C)N3)c1 (stereo not given) -0.96%, COc1cn(CC(=O)Nc2ccc(F)cc2)c(CN2CCCCC2)cc1=O -3.06%, CCOC(=O)c1c(N)n(-c2ccc(Cl)c(Cl)c2)c2nc3ccccc3nc12 0.609%, Cc1ccc(NC(=O)Cn2c(=O)n(-c3ccc(Cl)c(Cl)c3)c(=O)c3c(C)c(C)sc32)c(C)c1 -10.4%, Cc1cccc(Cn2c(CN3CCC(C(=O)NCc4cccnc4)CC3)cc3ccccc32)c1 -3.04%, CCOC(=O)c1ccc(NC(=O)CC2C(=O)N(c3cccc(OC)c3)C(=O)N2C2CCCCC2)cc1 (stereo not given) -13.5%, Cc1ccc(OCCn2cc(C(=O)C3CCCCC3)c3ccccc32)cc1 -15.1%, COc1nc(-c2ccc(C)cc2)ccc1-c1noc(-c2ccccc2Br)n1 -1.8%, COC(=O)c1ccc(Cl)cc1NC(=O)N1CCCn2nc(C)cc21 -0.381%, O=c1c2cccnc2n(Cc2ccccc2F)c(=O)n1Cc1ccccc1Cl 0.0263%, Cc1ccc(C)c(N2CCN(C(=O)CN3CCSc4ccc(S(=O)(=O)N(C)C)cc43)CC2)c1 -0.892%, CC(=O)Nc1nonc1-c1nnc(SCC(=O)Nc2cc(C)cc(C)c2)n1C -13.4%, CCCCOC(=O)CSc1nnc(-c2ccccc2)o1 0.574%, Cc1oc2ncn(CC(C)C)c(=O)c2c1C(=O)N1CCN(c2ccc(F)cc2)CC1 0.891%, COc1ccccc1CNc1ccc(-c2nc(C)no2)cc1[N+](=O)[O-] -2.95%, O=C(c1ccc(C(F)(F)F)cc1)N1CCC(c2nc(-c3ccc(S(=O)(=O)N4CCCC4)cc3)no2)CC1 -2.76%, COc1cccc(NC(=O)/C(C#N)=C\c2cn(Cc3ccc(C)cc3)c3ccccc23)c1 13.6%, COc1ccc(-c2oc3ncn4nc(-c5ccccc5Br)nc4c3c2-c2ccc(OC)cc2)cc1 6.63%, Cc1ccc(C)c(NC(=O)Cn2cc(C(=O)C3CCCCC3)c3ccccc32)c1 2.78%, O=C(c1ccc2c(c1)N(Cc1cccc(Cl)c1)C(=O)c1ccccc1S2(=O)=O)N1CCCCC1 -0.971%, Cc1ccc2[nH]c3c(=O)n(CC(=O)N(C)c4cc(Cl)ccc4C)ncc3c2c1 -2.37%, COc1cccc2c1Oc1ncccc1N(C(=O)CCC(=O)NCc1ccc(N(C)C)cc1)C2 -2.14%, COc1cccc(NC(=O)c2oc3ccccc3c2NC(=O)c2ccc(C(F)(F)F)cc2)c1 0.888%, O=C(CN1CCCN(Cc2ccc(Cl)cc2)S1(=O)=O)Nc1ccccc1F 0.202%, CCOC(=O)c1c(C)[nH]c(C)c1S(=O)(=O)N1CCC(C(=O)N2CCN(c3ccc(Cl)cc3)CC2)CC1 -3.71%, COc1ccc(-n2c(=O)c3c4c(sc3n(Cc3ccccc3)c2=O)CN(C(C)=O)CC4)cc1OC -3.13%, COc1ccccc1NC(=O)c1ccc2c(Cl)c3c(nc2c1)CCCC3 -18.7%, CC1=C(c2ccc(C)c(C)c2)S(=O)(=O)N=C1N1CCC(C(=O)NCCc2ccc(Cl)cc2)CC1 -11.6%, COc1cc(Cl)c(C)cc1NC(=O)c1cc2ccc3cccnc3c2[nH]1 -1.87%, O=C(c1cc(=O)c2cc(Cl)ccc2o1)N(Cc1ccccc1)C1CCS(=O)(=O)C1 (stereo not given) -0.655%, CC(=O)OCc1cnc(C)c2oc(=O)c(C(=O)Nc3cccc(F)c3)cc12 0%, Cc1nc(N2CCCC2)c2c(C(=O)Nc3cccc(Cl)c3C)c(C)oc2n1 -3.09%, Cc1ccc(-n2ncc3c(NCCCc4ccccc4)ncnc32)cc1 12.2%, COc1ccc(NC(=O)CSc2nc3nc(C)c(Cc4ccc(C)cc4)c(C)n3n2)cc1OC 7.56%, COc1ccc(Cl)cc1-n1nnc(-c2nc(-c3ccc4c(c3)OCO4)no2)c1C 6.77%, COc1cc2[nH]c(=O)n(Cc3ccc(C(=O)NCc4ccccc4)cc3)c(=O)c2cc1OC -13.8%, Cc1cccc(C)c1NC(=O)c1csc2c1CCCC2 -3.52%, COc1ccccc1NC(=O)C(=O)c1cc(C)n(-c2ccccc2F)c1C -8.68%, Cc1ccc(NC(=O)Nc2nnc(SCC(=O)Nc3ccc(F)cc3F)s2)cc1 -1.79%, CCCCN1CC(c2nc3ccccc3n2CCCCOc2ccc(C)cc2C)CC1=O (stereo not given) -0.108%, Cc1ccc(-n2ncc3c(NCCCN4CCOCC4)ncnc32)cc1Cl 3.92%, O=C(NCCCc1nc2ccccc2n1Cc1cccc(Cl)c1)c1ccco1 5.56%, Cc1ccc2c(=O)cc(C(=O)Nc3ccc(S(=O)(=O)Nc4onc(C)c4C)cc3)oc2c1C 2.02%, O=C(CSc1oc(-c2ccccc2)nc1S(=O)(=O)c1ccc(Cl)cc1)c1ccccc1 -1.41%, Cc1ccc(-n2cc(C(=O)Oc3ccc(F)cc3)c3ccccc3c2=O)cc1 -11.7%, O=C(CC1C(=O)N(c2ccc(F)cc2)C(=O)N1Cc1ccc2c(c1)OCO2)Nc1ccc(Cl)cc1 (stereo not given) 4.56%, Cc1cc(C)nc(-n2nc(C)c3c2N(Cc2ccccc2)C(=O)CC3c2ccc(Cl)cc2)n1 (stereo not given) -1.72%, CCN(C(=O)Cn1c(=O)n(-c2ccccc2)c(=O)c2ccc(C(=O)NCc3ccc4c(c3)OCO4)cc21)c1cccc(C)c1 -3.15%, Cc1c(Cl)cccc1NS(=O)(=O)c1ccc(-c2cnc(C3CC3)o2)cc1 -2.58%, Cc1cc(C)cc(OCC(=O)Nc2c(C(=O)c3ccccc3)oc3ccccc23)c1 -9.33%, O=C(CCn1c(=O)c2cccn2c2cccnc21)Nc1ccccc1C(F)(F)F -5.53%, CCC(=O)N1c2ccccc2CC1C(=O)NCc1cc(OC)ccc1OC (stereo not given) -5.68%, CC(C)c1ccc(NC(=O)c2cc(S(=O)(=O)N(C)C3CCCCC3)ccc2F)cc1 0.931%, CCCCn1cnc2cc(NCc3ccc(OCC)cc3)ccc21 -4.61%, CCOc1ccc(NC(=O)c2cc(S(=O)(=O)N3CCc4ccccc43)ccc2F)cc1 -7.62%, O=C(CCC(=O)c1ccc(F)cc1)Nc1ccc(Cl)cc1 -1.53%, CCn1cc(S(=O)(=O)c2cccc(C)c2)c(=O)c2cc(F)c(N3CCCC(C)C3)cc21 (stereo not given) -6.22%, O=C(c1ccc2c(c1)N(Cc1ccccc1F)C(=O)c1ccccc1S2(=O)=O)N1CCN(c2ccccn2)CC1 0.498%, CCOc1ccc(CNC(=O)C2CCCCN2S(=O)(=O)c2ccc(F)cc2)cc1OC (stereo not given) 1.22%, COc1ccc(-c2nc3c(c(SC)n2)Cc2c(CO)cnc(C)c2O3)cc1 2.26%
